Values marked as one replicate rest on one cluster of the flow cell; about a third of the high ones do not repeat.
Test system: ATP
Assay: switch fluorescence ratio, 500 uM ATP over buffer (Cy3 cluster intensity, sum of 5 cycles each) (fold (ratio)); higher = stronger signal-on switching upon ATP binding; sequences stand for … in TCGTCGGCAGCGTCAGATGTGTATAAGAGACAGTTTTTTTTTTTTTTTTTTTTTTTTT…TC
Conditions: aptamer strand: ATP DNA aptamer (quencher-CACCTGGGGGAGTATTGCGGAGGAAGG + anchor), 100 nM annealed; ATP concentration: 500 uM; one replicate
Outline: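 Clusters carrying Cy3-labelled switching strands on a modified Illumina MiSeq flow-cell were annealed to 100 nM quencher-labelled ATP aptamer and imaged in selection buffer. They were imaged again after 15 min with 500 uM ATP at 22 °C, over five buffer/ATP cycles with NaOH stripping and re-annealing in between. For each cluster, the fluorescence ratio is the summed Cy3 intensity of the target cycles divided by that of the buffer cycles, averaged per switch-domain sequence. Clusters outside 100-1000 RFU were left out.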
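Also: ATP exposure 15 min at 22 °C before imaging.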

Sequence | switch fluorescence ratio
TATGTGGGAG | 1.04
CACGTAACCG | 1.1
CGGGTTGAAC | 1.02
GGGTCAATGC | 2.2
GTGTTCGGTT | 0.959
CAATCTGCAG | 1.07
AAACCGGCGT | 1.02
TCTATATTCG | 1
CTCGTTGTAA | 1
TTGTGTAGG | 1.04
CTTATAGTGT | 0.986
ACTTCTCGGA | 1.01
GCGCAGAGTC | 1.17
GGCACATCGT | 1.02
GCGGATAAAC | 1.04
GGGGACGCTC | 1.01
GGGTAGCCA | 1.01
CAAGAGTGCT | 0.994
TCCGTTAACA | 1.06
AAACGTAAGG | 1.02
CGGTTTTGCT | 0.974
TTGACATCTA | 1.08
CGGAGAGCTC | 1.12

Sequence | switch fluorescence ratio
CCGGTGAGCT | 1.12
CGCCACGGAT | 0.979
TGGCGGTTAC | 1.04
TAGTCCTCGC | 1.09
TCAGGGTCGA | 1.24
AGTTCAGTG | 1.01
CCGGATGCGT | 1.15
CCTGATGGTC | 1.02
GCTCAATGAA | 0.996
TAGCCGTTGC | 1
TCGCATGAGA | 1.03
AGTTGCCCAT | 0.996
CCAAACGAAG | 0.995
GTCTACTGTG | 1.02
ATTCGGGTGC | 1.01
CACAGTAGCT | 1.09
CTTGCCCTGA | 1.01
AATTGGGTCG | 1.03
GGGCGGCCTC | 1.01
TTTCGAACGA | 1.05
TGGCCGCCGC | 1
TTCTACAATT | 0.979
CGATTCAGAA | 1.05

Sequence | switch fluorescence ratio
AATGGTGCAG | 1.03
GCTCAAAAAA | 1.01
TCGTCTTGTG | 1.02
AATTGTACAT | 1.01
GGGATGCTTT | 0.976
ACTAGTGTCG | 1.07
CCGTTCATGC | 2.78
CTGTTTTTTA | 0.984
AATGGAGAAA | 0.992
CTCAGTAGAA | 1
CAAACGCGGA | 1.31
TAGGCCTCGC | 0.982
GTATGTTATT | 1
AATCTGTCGA | 0.955
CACTGTCTAA | 1.02
AGATGTGCTC | 1.06
TGGGCCATCT | 0.997
GTGCTAAAAA | 0.962
ATGATTAGCG | 0.98
ACCCCGAGGG | 1.02
ATTCAATATA | 1.02
TACGATATTA | 1.05
ATGCTCACTG | 1.04

Sequence | switch fluorescence ratio
GAAAGGGCG | 1.02
AATTATCTCT | 0.99
TCATCGTGGT | 0.973
CGACTCTATA | 1.36
TTTAACGGAC | 1.36
GACACAACTG | 0.886
AGACGCAGGC | 1.11
ATTGTAGTGG | 1.02
CCATGGCTGC | 1.15
TTATCGGACT | 1.03
TCAAGGAA | 0.95
TTTAGAGGGC | 1.02
CATTGGATCG | 1
TCAATTGGCG | 1.03
AGCGGTATAT | 1.01
TCCCCGATGT | 1.17
GGTTAGCGTA | 0.896
TTTCCGCGGT | 1.37
GAGGAAAGG | 0.991
CAGTCAGATA | 0.991
GGCGGTGGGC | 1.02
ACACTTTCCG | 1.11
ACTTGAACA | 1.02

Sequence | switch fluorescence ratio
GTGCACCGAC | 1.13
GCTAAACCAA | 1.06
ATCACAGA | 1.01
TTCGGTCTAC | 1.28
CACTGTAGTT | 1.19
TATTCCCTAA | 1.06
TCAGGGGGG | 1.12
GACCCCTTGT | 1.04
TTTCCAGATG | 1.06
CGCCTGTCAA | 1.27
CATTTGGAG | 1.02
CTGTACTGAT | 0.975
TCTATGTGCA | 1.01
TCATGACAAA | 0.984
TTGCTCGGAG | 0.997
CATGATGTTT | 0.988
GCATAGTGCT | 1.04
ATCATCATG | 0.957
TTACGGTAGC | 1.03
AGGCAGCATT | 1
TGCGCTTTAG | 0.961
GCGCAACCGG | 0.985
TAGTGCACGA | 1.03

Sequence | switch fluorescence ratio
TCAAACATAT | 1
TTTCCCGCCC | 3.89
ATTGTACTGC | 0.996
CATTAATGTT | 0.97
ATTCGATGCT | 0.992
TTATTTTT | 1
TACCTCCCTT | 0.97
GCTATTACGG | 1.06
GTGATTAGCA | 0.962
CACTCGGCAT | 3.07
TCCAAGTAAT | 1.7
CTGCTAAGCA | 1.05
CCGTAGTCGT | 1.44
TTACTTCGGC | 0.96
TTTCAATCAG | 0.986
GGGACATCTG | 0.973
TCGGGGAAGA | 1.04
CAGGGCTTTT | 1.03
ATGCGTCGGT | 1
ATATAACGGT | 1
TCGCTAGTGG | 0.985
TCGATACTAC | 1.37
TAGGCGCTGA | 1.05

Sequence | switch fluorescence ratio
GCACAGGGAT | 1
CAAATACGGG | 1.03
GCGGAACACT | 1.08
GCTGTGTTCA | 0.929
CAGGGAAATT | 0.978
AAAGTGGAAA | 0.975
GAACCGTACT | 1.27
GAAGCGCTGA | 1.04
CCCGACGTCA | 1.79
ATGCTTTCCT | 1.03
GAATCCTT | 1.03
CAATCTTGAG | 0.967
CGACGCAGG | 2.67
ACTTTAATT | 1.03
ATCTAACTTC | 0.991
CTTATAGAAG | 0.98
TGGTCCACTT | 0.981
CGAGAAA | 1.02
TGGTGCGTCC | 1.03
AACTGTTCCG | 1.02
